Experimental data as given in publication PMC7819943, “Rice protein-binding microarrays: a tool to detect cis-acting elements near promoter regions in rice”.
Some of the results follow.

These sequences were tested against T1, OsWOX13 (Oryza sativa, UniProt Q5QMM3 1-267) (assay: protein-binding microarray (RPBM); PBS, 2% BSA, 51.3 ng/ul salmon testes DNA, 50 uM zinc acetate, 200 nM TF, 25 C, 1 h; high values mean tight binding). Conditions: protein: recombinant; tags: N-terminal polyhistidine and DsRed monomer fusion (pET32a); label: CyDye5-dUTP incorporated in the synthesized complementary strand; 3' TTTTT single-stranded linker to array surface; dsDNA, one strand shown.
T1 sequence: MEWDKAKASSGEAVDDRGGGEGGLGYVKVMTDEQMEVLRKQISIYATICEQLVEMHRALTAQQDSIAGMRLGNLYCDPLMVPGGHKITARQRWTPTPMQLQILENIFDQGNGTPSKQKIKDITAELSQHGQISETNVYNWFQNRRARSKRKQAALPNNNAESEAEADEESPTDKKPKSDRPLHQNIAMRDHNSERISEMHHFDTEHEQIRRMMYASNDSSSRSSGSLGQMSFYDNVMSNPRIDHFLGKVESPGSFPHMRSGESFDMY
Summary of the method: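 Ni–NTA purification followed expression in E. coli BL21-CodonPlus of transcription factors fused N-terminally to a polyhistidine tag and DsRed. At 200 nM in PBS with 2% BSA, salmon testes DNA and 50 µM zinc acetate, the protein was incubated for 1 h at 25 °C with a custom Agilent array that had been primer-extended with Cy5-dUTP and blocked with 2% BSA. After washing, the array was read on an Axon 4000B scanner. The binding signal is per-feature fluorescence intensity in arbitrary units.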

Sequence	binding signal
CGAGTTAACTTAATTACCACGCGTATCTTAATTACACTGCCGGAGTCACCTAGTGCAG	13200 fluorescence intensity (a.u.)
GTGATTAATTAATTATTAATTAATCGCTAATCAGGATAATCGGAGTCACCTAGTGCAG	65500 fluorescence intensity (a.u.)
GCTTCTATATCCGTGATTGTTAACACTATTATATTGTTATCGGAGTCACCTAGTGCAG	5570 fluorescence intensity (a.u.)
GTCCGCCTCTAATCACGCCCTACCCAATCTAATCCTAAGCCGGAGTCACCTAGTGCAG	4240 fluorescence intensity (a.u.)
TGGGTAATTTATCGATAACGCACCCCTTAAATATGCAAATCGGAGTCACCTAGTGCAG	6500 fluorescence intensity (a.u.)
TGATTGCTTTTCGTCAATTAGCCGCACAGCACAGTACTCTCGGAGTCACCTAGTGCAG	5160 fluorescence intensity (a.u.)
TCACCTAGATTATTAAGAATTTTAACTGTTCAAGGAAACTCGGAGTCACCTAGTGCAG	4360 fluorescence intensity (a.u.)
AACAACATCTCGAGATAATTGGTGCCACCAATTCCACCAACGGAGTCACCTAGTGCAG	5800 fluorescence intensity (a.u.)
CGTGTGCAGTGCAGTGATGATTGAGAAAGGCCATGCCATACGGAGTCACCTAGTGCAG	3900 fluorescence intensity (a.u.)
TTTCTGTTGTGCAAGAGGTGATTGGTTAACATCTCGAAAGCGGAGTCACCTAGTGCAG	11200 fluorescence intensity (a.u.)
CATAATCATCCATCCTATTTAAACAAACATATCTGCAGGTCGGAGTCACCTAGTGCAG	4410 fluorescence intensity (a.u.)
CTAAATTACACCTTGTATACATACTACTATACGGTACAGTCGGAGTCACCTAGTGCAG	16800 fluorescence intensity (a.u.)
AAAATTTGGTTGAAATTGAAACGATGTGACGGAAAAGTTGCGGAGTCACCTAGTGCAG	6780 fluorescence intensity (a.u.)
TTGTGATTGGTGAGAGGCCTTCCAAATTTGTAACTTTCCACGGAGTCACCTAGTGCAG	44000 fluorescence intensity (a.u.)
TCTAACTAGATATAATTAAAGTGATTTTACAGCTCTTGAGCGGAGTCACCTAGTGCAG	34900 fluorescence intensity (a.u.)
GAGTAATTTACTCTTTAGAAATTGACATAGATGTTATCAGCGGAGTCACCTAGTGCAG	25600 fluorescence intensity (a.u.)
TTTCTATTAACTGCAATAATGGTTCGACAGTGTGCGCGTACGGAGTCACCTAGTGCAG	11800 fluorescence intensity (a.u.)
TGCCATGTCACCGCGATGTTGATTTATGACTGGATTTCACCGGAGTCACCTAGTGCAG	16300 fluorescence intensity (a.u.)
TTTGATTTCCCCATCCATCATCGAAGCATCATCAAGCAGACGGAGTCACCTAGTGCAG	13800 fluorescence intensity (a.u.)
CTAAATGATCTCTTTATTAATCCCTTGTACACCTGTAACCCGGAGTCACCTAGTGCAG	6760 fluorescence intensity (a.u.)
ACATTGACTGCACCTGTACAAATCATCAAATGTTTGAAGTCGGAGTCACCTAGTGCAG	14300 fluorescence intensity (a.u.)

Sequence	binding signal
AATTAATTATGGTCGACTCCGACTCGTTAACCACATGTTTCGGAGTCACCTAGTGCAG	21400 fluorescence intensity (a.u.)
TTTACATAATTATAAATTATTTTGTTATGAGTTGTTTTATCGGAGTCACCTAGTGCAG	20700 fluorescence intensity (a.u.)
GCGCAATTGGATTGAAGAATATTCAGATCATAGTTTTCCTCGGAGTCACCTAGTGCAG	14800 fluorescence intensity (a.u.)
AATTAAATTTAAGTTCTACACTTAAATTAGTTTGCTTAAGCGGAGTCACCTAGTGCAG	11700 fluorescence intensity (a.u.)
AAAGGTATTAATTGCAGTTAGCTCAGAATTTCTCAGCCAACGGAGTCACCTAGTGCAG	7130 fluorescence intensity (a.u.)
TGGAAATTAATTATAAATATTAAACGTAGACTATTAATAACGGAGTCACCTAGTGCAG	7050 fluorescence intensity (a.u.)
GATGGTGAGGTGATTTGCAACTTGCAAGATTGTTGCCCTTCGGAGTCACCTAGTGCAG	3460 fluorescence intensity (a.u.)
ATCAAATTATCACCTTAATCTCATCATCAATTCTGTCGTACGGAGTCACCTAGTGCAG	18300 fluorescence intensity (a.u.)
CAGGTTAATTTATGCAATTAACCGTGCTATCACGAACCACCGGAGTCACCTAGTGCAG	36000 fluorescence intensity (a.u.)
TTAATTAATCACGTGTTAATAAATAACTCTGTTTTACATGCGGAGTCACCTAGTGCAG	16500 fluorescence intensity (a.u.)
AGAATTAATCTCGCACACTAATTATAGGTCCAGCTAAGTTCGGAGTCACCTAGTGCAG	13500 fluorescence intensity (a.u.)
TTCATCAATCCAATTGCAAGAATTGAATTCAATTTGGTGTCGGAGTCACCTAGTGCAG	7130 fluorescence intensity (a.u.)
GTAAACTGCATATTAACGCCTGAATTCATTGGTAGTGCCACGGAGTCACCTAGTGCAG	12500 fluorescence intensity (a.u.)
CCACTGCATTAATTGTGTTTTCCTTTGCAAACAAATCAATCGGAGTCACCTAGTGCAG	6490 fluorescence intensity (a.u.)
TTATTAATTATCATATTAGTAGTAGTAGTAGTAGCTAGGCCGGAGTCACCTAGTGCAG	34100 fluorescence intensity (a.u.)
CATAATAATTATATAGTCCGTCTTAGCATAAGCCACGGGGCGGAGTCACCTAGTGCAG	22200 fluorescence intensity (a.u.)
TATATATATATATATATATGTGTGTGTGTGTGTGTATGGTCGGAGTCACCTAGTGCAG	5650 fluorescence intensity (a.u.)
AAATATATAGATTGGATACGATACATGATAAGTGATGGCACGGAGTCACCTAGTGCAG	22300 fluorescence intensity (a.u.)
AATGATTAGAGATTAATCACTAATCAAGATAATTAATCAGCGGAGTCACCTAGTGCAG	49500 fluorescence intensity (a.u.)
CACCCATGACTGTCTTTCTTCAATTGAAATGAATTATTGTCGGAGTCACCTAGTGCAG	5390 fluorescence intensity (a.u.)
ACGTTTAACTTTCTTGTAATTTGCTATTTAAGGTTAAGCTCGGAGTCACCTAGTGCAG	6740 fluorescence intensity (a.u.)
